# In a collection of fitness landscapes (doi:10.1016/j.celrep.2020.107928):
# Whole data set: some 81,000 sequences, median “one-hybrid fitness for binding NBS DNA” near -0.1, cut for the highest 2% near 0.36. Some of the results follow.
# B1: Caulobacter ParB omega fusion; a variant is named by its letters at X, in order, B8GW30 (parent)
# chain: MESVVVGEPGMSEGRRGLGRGLSALLGEVDAAPAQAPGEQLGGSREAPIEILQRNPDQPRRTFREEDLEDLSNSIREKGVLQPILVRPSPDTAGEYQIVAGERAWRAAQRAGLKTVPIMVRELDDLAVLEIGIIENVQRADLNVLEEALSYKVLMEKFERTQENIAQTIGKSXSHVANXMRLLXLPDEVQSYLVSGELTAXHARAIAAAADPVALAKQIIEGGLSVRETEALARKAPNLSAGKSKGGRPPRVKDTDTQALESDLSSVLGLDVSIDHRGSTGTLTITYATLEQLDDLCNRLTRGI
# Variants of: B1
# Experiment: one-hybrid fitness for binding NBS DNA (the Noc-binding site; scaled: cognate 1, non-cognate 0); higher = stronger binding
# Details: with NBS DNA site
# Procedure, shortened: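 Bacterial one-hybrid selection in E. coli USO rpoZ- hisB- pyrF- with a HIS3 reporter carrying the site 19 bp from the promoter, screening Caulobacter ParB libraries with four specificity codons randomised (NNS). Cells grew 48 hours at 37°C on M9-minus-histidine plus 0.1 mM IPTG and 5 mM 3-AT. Plasmids before and after selection were Illumina-sequenced, three replicate libraries pooled, and variants under 10 reads dropped. Fitness is the log change in variant-to-wild-type read ratio, rescaled to cognate 1, non-cognate 0.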
row,Variant,one-hybrid fitness for binding NBS DNA
1,APPP,≤ 0.2
2,PPNN,≤ 0.2
3,NYQR,≤ 0.2
4,HSWR,≤ 0.2
5,AHPV,≤ 0.2
6,VHPD,≤ 0.2
7,TGNT,≤ 0.2
8,PCGW,≤ 0.2
9,QWRW,≤ 0.2
10,HTDM,≤ 0.2
11,WPPF,≤ 0.2
12,STQD,≤ 0.2
13,VTTV,≤ 0.2
14,QTEM,≤ 0.2
15,RNEI,≤ 0.2
16,APTR,≤ 0.2
17,DYVR,≤ 0.2
18,QSMY,≤ 0.2
19,LSHE,≤ 0.2
20,AKCW,≤ 0.2
21,HYNG,≤ 0.2
22,ALTY,≤ 0.2
23,PRAA,≤ 0.2
24,LYFF,≤ 0.2
25,HQHS,≤ 0.2

row,Variant,one-hybrid fitness for binding NBS DNA
1,MASY,≤ 0.2
2,LRQY,≤ 0.2
3,YLNF,≤ 0.2
4,HHQT,≤ 0.2
5,LDLA,≤ 0.2
6,ELHI,≤ 0.2
7,SYRI,≤ 0.2
8,YIDL,≤ 0.2
9,MSST,≤ 0.2
10,VRLY,≤ 0.2
11,HQWS,≤ 0.2
12,PVLY,≤ 0.2
13,LHTT,≤ 0.2
14,PYTC,≤ 0.2
15,PDFT,≤ 0.2
16,KCQG,≤ 0.2
17,QCHI,≤ 0.2
18,SSHE,≤ 0.2
19,EPQE,≤ 0.2
20,SMQL,≤ 0.2
21,HYPL,≤ 0.2
22,AFKK,≤ 0.2
23,GPMK,≤ 0.2
24,EDNG,≤ 0.2
25,FQAE,≤ 0.2

row,Variant,one-hybrid fitness for binding NBS DNA
1,GTFG,≤ 0.2
2,VQPF,≤ 0.2
3,DRLV,≤ 0.2
4,MNTC,≤ 0.2
5,NWQR,≤ 0.2
6,SLTS,≤ 0.2
7,SGIY,≤ 0.2
8,HYVK,≤ 0.2
9,CFSC,≤ 0.2
10,TNAC,≤ 0.2
11,PYRV,≤ 0.2
12,FMPC,≤ 0.2
13,RYDI,≤ 0.2
14,RCIR,0.294
15,QLFN,≤ 0.2
16,TPAQ,≤ 0.2
17,HDTM,≤ 0.2
18,PKEG,≤ 0.2
19,TAPK,≤ 0.2
20,HRPL,≤ 0.2
21,YEPV,≤ 0.2
22,MAYH,≤ 0.2
23,ERTF,≤ 0.2
24,DDNR,≤ 0.2
25,CPST,≤ 0.2

row,Variant,one-hybrid fitness for binding NBS DNA
1,YKDA,≤ 0.2
2,YLEC,≤ 0.2
3,EGYG,≤ 0.2
4,PSSA,≤ 0.2
5,HSDS,≤ 0.2
6,ELWA,≤ 0.2
7,QPSR,0.44
8,ILCI,≤ 0.2
9,HLDL,≤ 0.2
10,LGWT,≤ 0.2
11,PFTF,≤ 0.2
12,PRMM,≤ 0.2
13,GAMG,≤ 0.2
14,TQSG,≤ 0.2
15,RTAR,0.548
16,DSWC,≤ 0.2
17,TLWY,≤ 0.2
18,NVSN,≤ 0.2
19,VEEC,≤ 0.2
20,TNSY,≤ 0.2
21,QFVS,≤ 0.2
22,QQAL,≤ 0.2
23,DFCS,≤ 0.2
24,MTAS,≤ 0.2
25,STTD,≤ 0.2

row,Variant,one-hybrid fitness for binding NBS DNA
1,RQAS,0.38
2,SCLD,≤ 0.2
3,IPNA,≤ 0.2
4,LLWF,≤ 0.2
5,VMAS,≤ 0.2
6,HIRP,≤ 0.2
7,VGHD,≤ 0.2
8,NVTY,≤ 0.2
9,WPGT,≤ 0.2
10,GSVF,≤ 0.2
11,YRTP,≤ 0.2
12,LICC,≤ 0.2
13,CPIE,≤ 0.2
14,ETVC,≤ 0.2
15,MGPS,≤ 0.2
16,QTRD,0.379
17,IHHC,≤ 0.2
18,TVCT,≤ 0.2
19,HPAD,≤ 0.2
20,QSKG,0.302
21,EVKV,≤ 0.2
22,WRGR,≤ 0.2
23,GSKY,≤ 0.2
24,SLWP,≤ 0.2
25,IFQT,≤ 0.2

row,Variant,one-hybrid fitness for binding NBS DNA
1,AKNN,≤ 0.2
2,ISYM,≤ 0.2
3,KRFF,≤ 0.2
4,KMRG,≤ 0.2
5,RLFR,0.247
6,LSSC,≤ 0.2
7,FINK,≤ 0.2
8,WPAY,≤ 0.2
9,TIQT,≤ 0.2
10,NIKT,≤ 0.2
11,LTRI,≤ 0.2
12,ACYV,≤ 0.2
13,CHHR,≤ 0.2
14,MTTM,≤ 0.2
15,QAWN,≤ 0.2
16,YPWF,≤ 0.2
17,PLMI,≤ 0.2
18,RCPH,≤ 0.2
19,TVTL,≤ 0.2
20,HPMF,≤ 0.2
21,FKPF,≤ 0.2
22,VANF,≤ 0.2
23,RHPI,≤ 0.2
24,SLKS,≤ 0.2
25,DAST,≤ 0.2

row,Variant,one-hybrid fitness for binding NBS DNA
1,IRRF,≤ 0.2
2,RKGQ,≤ 0.2
3,NILR,≤ 0.2
4,KYMS,≤ 0.2
5,RVNM,≤ 0.2
6,EVTP,≤ 0.2
7,GGRT,≤ 0.2
8,TLKP,≤ 0.2
9,SMYR,≤ 0.2
10,DCRF,≤ 0.2
11,NTPV,≤ 0.2
12,ITPV,≤ 0.2
13,PFPS,≤ 0.2
14,LLRL,≤ 0.2
15,IRSH,≤ 0.2
16,GQTI,≤ 0.2
17,VNSW,≤ 0.2
18,FIRG,≤ 0.2
19,ILWT,≤ 0.2
20,ILKV,≤ 0.2
21,NEHN,≤ 0.2
22,TQDC,≤ 0.2
23,ITNM,≤ 0.2
24,SDCL,≤ 0.2
25,HMYG,≤ 0.2

row,Variant,one-hybrid fitness for binding NBS DNA
1,PMSQ,≤ 0.2
2,YWTG,≤ 0.2
3,IAQR,≤ 0.2
4,SHEN,≤ 0.2
5,MRLD,≤ 0.2
6,APCS,≤ 0.2
7,AQAS,≤ 0.2
8,GAPI,≤ 0.2
9,QAHF,≤ 0.2
10,LTVY,≤ 0.2
11,PSQT,≤ 0.2
12,HSGR,≤ 0.2
13,TPNM,≤ 0.2
14,HGHS,≤ 0.2
15,LPFP,≤ 0.2
16,RDEA,≤ 0.2
17,RVDW,≤ 0.2
18,IPDL,≤ 0.2
19,RCWW,≤ 0.2
20,LTSP,≤ 0.2
